In paper PMC4336329 (PLoS ONE, 2015):
The campaign covered roughly 310,000 compounds. About 14,000 (4.5%) showed an effect of 50% or more. Effects have a minus sign here. Some of the results follow.

Target: human ether-à-go-go-related gene (hERG) potassium channel (human, UniProt Q12809)
Assay: primary screen, population patch clamp on CHO cells stably expressing hERG
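Note: peak tail current of the secondary pulse compared with the same well before compound.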

human ether-à-go-go-related gene (hERG) potassium channel, sequence (Q12809 whole entry, looked up): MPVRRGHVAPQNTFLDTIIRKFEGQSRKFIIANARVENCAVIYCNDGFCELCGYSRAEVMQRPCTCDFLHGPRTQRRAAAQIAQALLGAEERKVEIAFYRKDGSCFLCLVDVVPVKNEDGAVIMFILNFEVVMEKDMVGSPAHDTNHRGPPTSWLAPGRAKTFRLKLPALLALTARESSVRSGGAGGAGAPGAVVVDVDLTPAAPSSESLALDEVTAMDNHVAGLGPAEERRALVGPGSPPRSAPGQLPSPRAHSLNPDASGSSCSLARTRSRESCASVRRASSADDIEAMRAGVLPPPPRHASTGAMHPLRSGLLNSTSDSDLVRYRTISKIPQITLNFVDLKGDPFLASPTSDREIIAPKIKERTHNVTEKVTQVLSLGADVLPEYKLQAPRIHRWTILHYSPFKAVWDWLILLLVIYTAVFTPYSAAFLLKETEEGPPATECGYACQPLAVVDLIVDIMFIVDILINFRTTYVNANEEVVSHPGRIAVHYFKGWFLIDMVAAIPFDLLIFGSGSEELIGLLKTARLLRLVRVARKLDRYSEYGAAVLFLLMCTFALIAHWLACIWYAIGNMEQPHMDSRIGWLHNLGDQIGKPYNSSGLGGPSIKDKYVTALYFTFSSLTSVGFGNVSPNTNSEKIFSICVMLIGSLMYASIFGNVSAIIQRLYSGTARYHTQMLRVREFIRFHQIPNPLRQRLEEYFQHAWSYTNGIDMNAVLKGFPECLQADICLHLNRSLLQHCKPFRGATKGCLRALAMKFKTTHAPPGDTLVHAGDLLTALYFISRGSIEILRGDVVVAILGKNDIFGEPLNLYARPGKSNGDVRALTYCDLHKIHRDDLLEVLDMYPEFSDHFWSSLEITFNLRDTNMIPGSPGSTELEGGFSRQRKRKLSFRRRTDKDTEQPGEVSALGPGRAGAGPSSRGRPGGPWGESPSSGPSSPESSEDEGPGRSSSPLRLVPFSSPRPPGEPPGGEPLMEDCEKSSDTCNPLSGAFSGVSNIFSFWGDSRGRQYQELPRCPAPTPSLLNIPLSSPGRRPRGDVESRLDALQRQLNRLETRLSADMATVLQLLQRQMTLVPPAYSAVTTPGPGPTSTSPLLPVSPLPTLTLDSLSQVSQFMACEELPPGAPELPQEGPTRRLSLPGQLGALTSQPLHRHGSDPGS

Row | Compound | hERG current change (%, negative = inhibition) at 10uM [%]
1 | Cc1ccc(NC(=O)COC(=O)Cn2cnc3c2c(=O)n(C)c(=O)n3C)cc1Cl | -29.2
2 | Cc1ccc(-c2nn(-c3cc(Cl)ccc3[N+](=O)[O-])c(=O)c3ccccc23)cc1C | 9.05
3 | O=C(CN1CCN(Cc2ccc3c(c2)OCO3)CC1)N1CCc2[nH]c3ccc(F)cc3c2C1 | -62.8
4 | Cc1nn(CC(=O)NCCCc2ccccc2)c(=O)c2cc3occc3n12 | 14.9
5 | Cc1cccc(NC(=O)c2sc(Cl)nc2-c2ccccc2)c1 | 28.4
6 | Cc1ccccc1C(=O)N1CCC(C(=O)NN2C(=O)NC3(CCC(C)CC3)C2=O)CC1 (stereo not shown) | 4.33
7 | CC(O)CNc1nc2sc3c(c2c(=O)n1CCc1ccccc1)CCCCC3 (stereo not shown) | 13.1
8 | CN(CC(=O)Nc1ccc(Cl)c(S(=O)(=O)N2CCOCC2)c1)C(=O)c1ccc(C#N)cc1 | -21.4
9 | O=C(O)C1=NN(c2c(F)c(F)cc(F)c2F)C(=O)CC1 | 24.4
10 | CN(C)S(=O)(=O)c1cccc(NC(=O)Cn2cc(C(F)(F)F)cc(Cl)c2=O)c1 | 3.98
11 | COC(=O)CNC(=O)c1ccccc1 | 16.4
12 | COc1cccc(C2CC(c3cccs3)=NN2C(=S)Nc2ccccc2)c1OC (stereo not shown) | 6.78
13 | Cn1nc(C(=O)NC2CCCCC2)c2c1-c1ccccc1S(=O)(=O)C2 | 11.7
14 | CC(C)N(Cc1nnc(-c2ccccc2Br)o1)C(=O)c1cc(Cl)nc2ccccc12 | -24.9
15 | CC1CCN(C(=O)/C(=C\c2ccccc2F)NC(=O)c2ccccc2)CC1 | -52.7
16 | COc1cc(-c2nc3c[n+](CC(=O)c4ccccc4)ccc3n2C)cc(OC)c1OC.[Br-] | 0.461
17 | Cc1ccc(-c2nnn(CC(=O)N(c3ccccc3F)C(CC(C)C)C(=O)NCC3CCCO3)n2)cc1 (stereo not shown) | -13
18 | NC(=O)C1CCN(c2nc(-c3ccc(Br)cc3)cs2)CC1 | 10.9
19 | COc1cc(C(=O)N=c2sc3c(C)ccc(OC)c3n2C)cc(OC)c1OC | 14
20 | O=Cc1ccc(-n2cccn2)cc1 | 9.76
21 | CN(C)S(=O)(=O)c1cc(NC(=O)COC(=O)C2CSC3(C)CCC(=O)N23)ccc1Cl (stereo not shown) | -23
22 | O=C(CSc1nnc(CNC(=O)c2c(F)cccc2F)o1)NCc1ccccc1Cl | 13.7
23 | Cc1noc(C)c1COc1ccc2ccc(=O)oc2c1 | 7.69
24 | O=C(O)C1C2CCC(O2)C1C(=O)Nc1ccc(F)cc1 (stereo not shown) | 7.03
25 | COc1cccc(C(=O)Nc2cccc(NC(=O)c3ccccc3Cl)c2)c1 | -52
26 | Cc1ccc(NC(=O)COC(=O)c2ccc3c(c2)OCO3)c(C)c1 | 11.5
27 | CCOc1ccccc1N(CC(=O)NCc1ccncc1)S(=O)(=O)c1ccccc1 | -14.7
28 | Cc1csc(NC(=O)c2ccc(-c3ccc(Cl)cc3Cl)o2)n1 | 28.4

Row | Compound | hERG current change (%, negative = inhibition) at 10uM [%]
29 | CC(=O)c1cccc(NC(=O)C(C)OC(=O)CCN=C2NS(=O)(=O)c3ccccc32)c1 (stereo not shown) | -6.54
30 | CN1c2ccccc2C(=O)/C(=C\Nc2ncccn2)S1(=O)=O | 12
31 | CCOC(=O)C1CCCN(CC(O)COCc2ccc3c(c2)OCO3)C1 (stereo not shown) | -23.5
32 | O=C(CCC(=O)N1CCN(c2ccc(C(F)(F)F)cn2)CC1)c1cccs1 | 3.53
33 | Cc1occc1-c1nnc(SCC(=O)Nc2ccccc2)n1CCc1ccccc1 | -67
34 | COC(=O)CCCC(=O)N1CCCC(N(C)CCc2ccccc2)C1 (stereo not shown) | -40.6
35 | O=C(O)c1ccc2nnn(O)c2c1 | -2.03
36 | CCOc1ccc(N2C(=O)CC(N(CCc3ccc(S(N)(=O)=O)cc3)C(C)=O)C2=O)cc1 (stereo not shown) | 5.89
37 | COC(=O)c1sc(NC(=O)/C=C/c2ccccc2Cl)nc1C | 4.08
38 | O=C(O)CCc1ccc(-c2ccccc2)o1 | -2.53
39 | CCOCC(=O)N1CCC(Cc2ccccc2)CC1 | -13.4
40 | O=C(O)c1cc2c(s1)CCCC2 | 13.2
41 | C=C(C)CN(CC)C(=O)CN1C(=O)NC2(CCc3ccccc32)C1=O (stereo not shown) | 19.7
42 | Cc1ccc(C)c(NC(=O)CSc2nc3[nH]ncc3c(=O)[nH]2)c1 | 19.9
43 | CCC1Sc2ccc(S(=O)(=O)N3CCN(c4ccccc4)CC3)cc2NC1=O (stereo not shown) | 17.4
44 | CC(C)[C@H](NC(=O)c1ccccc1Cl)C(=O)NC1CCCCCC1 | 12.2
45 | COc1ccc(C2CC(c3ccccc3)=NN2c2ccc(S(N)(=O)=O)cc2)cc1OC (stereo not shown) | -6.92
46 | CC(=O)[C@]1(O)Cc2c(O)c3c(c(O)c2[C@@H](O[C@H]2C[C@H](N)[C@H](O)[C@H](C)O2)C1)C(=O)c1ccccc1C3=O.Cl | 17.3
47 | O=C(N=Nc1c(O)n(C2OC(=O)c3ccccc32)c2ccccc12)c1ccco1 (stereo not shown) | 9.68
48 | COC(=O)CNC(=O)CCc1nnc(C2(c3ccc(Cl)cc3)CCC2)o1 | -4.74
49 | C/C(=N\OC(=O)c1ccccc1)c1cc(-c2ccc(Cl)cc2)no1 | 0.835
50 | Cc1cc(N2CC(C(=O)NCc3cccs3)CC2=O)ccc1C(C)C (stereo not shown) | -19.5
51 | COc1cc2ccccc2cc1C(=O)NC1CCCCC1 | -27.7
52 | CC12CC(NC(=O)N1c1cccc(C(=O)NCc3ccccc3)c1)c1ccccc1O2 (stereo not shown) | -6.4
53 | COc1ccc(CC(=O)Nc2ccc(C(=O)NC(C)(C)C)cc2)cc1 | 3.23
54 | CCC1CCCCN1C(=O)COc1ccc(F)cc1 (stereo not shown) | 7.24
55 | COC(=O)C1=C(CS(=O)(=O)c2ccccc2)NC(=O)NC1c1ccc(O)cc1 (stereo not shown) | 12.1
